These results are taken from PubChem BioAssay AID488969 (Vanderbilt High Throughput Screening Facility, 2010).

Over roughly 110,000 compounds, “z-score” has its median near -0.1; the highest 2% begin near 2. The list shows a part of the results. Calls of active or inactive are those of the source.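 Rule for the calls: active = z-score in the third read window above 3 or below -3; inactive = the rest.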

The target of this assay is Metabotropic glutamate receptor 8 (Rattus norvegicus) (UniProt P70579). Description: rat mGluR8 modulators via GIRK flux, primary screen, cell-based, thallium flux, HTS (AID 488969). The following applies: HEK293 rat mGluR8, GIRK (G protein-gated inwardly rectifying potassium channel) thallium flux, FluoZin2; at 10 µM; stronger effect = higher value; submaximal glutamate (EC20) added with thallium.
Sequence of UniProt P70579 (P70579 whole entry, looked up): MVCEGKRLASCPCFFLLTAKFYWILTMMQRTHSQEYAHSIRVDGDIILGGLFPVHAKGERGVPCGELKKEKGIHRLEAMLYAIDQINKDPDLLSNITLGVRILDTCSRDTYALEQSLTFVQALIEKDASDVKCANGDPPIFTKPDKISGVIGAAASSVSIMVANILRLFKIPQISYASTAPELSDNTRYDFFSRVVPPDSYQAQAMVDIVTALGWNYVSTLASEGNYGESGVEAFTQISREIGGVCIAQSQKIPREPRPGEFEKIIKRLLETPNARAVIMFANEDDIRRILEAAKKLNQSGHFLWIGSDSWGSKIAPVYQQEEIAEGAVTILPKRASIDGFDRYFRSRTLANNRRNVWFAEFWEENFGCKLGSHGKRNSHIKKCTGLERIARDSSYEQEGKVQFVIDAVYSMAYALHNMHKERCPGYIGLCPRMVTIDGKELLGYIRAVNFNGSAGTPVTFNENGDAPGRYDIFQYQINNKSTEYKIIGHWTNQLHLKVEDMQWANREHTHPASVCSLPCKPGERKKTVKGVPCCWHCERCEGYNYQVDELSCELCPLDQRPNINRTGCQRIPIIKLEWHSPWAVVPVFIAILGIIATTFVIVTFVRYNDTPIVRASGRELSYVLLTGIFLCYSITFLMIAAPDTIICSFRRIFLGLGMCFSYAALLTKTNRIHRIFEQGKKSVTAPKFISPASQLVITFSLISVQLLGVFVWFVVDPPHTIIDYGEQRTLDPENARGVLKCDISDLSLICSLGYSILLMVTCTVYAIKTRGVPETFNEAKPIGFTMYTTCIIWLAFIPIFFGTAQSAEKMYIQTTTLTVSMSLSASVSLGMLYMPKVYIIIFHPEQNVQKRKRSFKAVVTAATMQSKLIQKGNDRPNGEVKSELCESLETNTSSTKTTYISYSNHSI
In turn, `CS(=O)(=O)N(CC(=O)NCC1CCCO1)c1cc(Cl)cc(Cl)c1` (stereo not given) gave a z-score of -0.503. Under `O=C(NCCCN1CCN(C2CCCCC2)CC1)Nc1ccccc1C(F)(F)F` stands -0.315; under `CC(C)(C)c1ccccc1OCCN1CCCC1`, -0.516; under `O=C1c2ccccc2C(=O)N1OCCOCCOCCBr`, -1.21. Under `CCCCCOc1ccc2oc(=O)c3c(c2c1)CCCN3C(=O)CN1CCCC(C(=O)OCC)C1` (stereo not given) stands 0.559. Under `Cc1ccc(Nc2nnc(SCn3nnc4ccccc4c3=O)s2)cc1` stands -0.0787; under `Clc1ccc(-c2nnc(-c3ccc(Br)cc3)c(N3CCSCC3)n2)cc1`, -0.0652; under `COC(=O)c1ccc(C(C(=O)NCc2ccccc2)N(Cc2cccs2)C(=O)c2cnccn2)cc1` (stereo not given), -0.245. In turn, `Cc1cccc(NC(=O)Nc2cc(C)on2)c1` returned a z-score of -0.376. Regarding `COC(=O)c1cc(CNC(=O)c2ccc(O)c(Cl)c2)ccc1OC`, the z-score is 0.551. Under `Cc1ccc(OCCC(=O)Nc2ccc(F)c(Cl)c2)cc1` stands 0.781; under `CC1(CCc2ccccc2)NC(=O)N(Cc2nnc(-c3ccccc3Br)o2)C1=O` (stereo not given), -0.897; under `N/C(=N\OC(=O)C(c1ccccc1)c1ccccc1)c1ccccn1`, -0.438. Under `C#CCSc1nnc(-c2cc3c(C(F)(F)F)nn(C)c3s2)n1C` stands -0.169; under `CC(C)Sc1oc(-c2ccco2)nc1S(=O)(=O)c1ccccc1`, 0.102; under `CN(C)c1ccc(/C=N/NC(=O)CN(c2ccccc2Cl)S(C)(=O)=O)cc1Br`, -0.749. For the compound `COC(=O)c1cccc(-n2nnnc2SCC(=O)Nc2cc(C)on2)c1`, the z-score is -0.135. Under `Cc1ccc(NC(=S)NN(C)c2cc(C)nc(C)n2)cc1` stands -0.0375; under `Cc1csc(Sc2ccc(C(=O)OCC(=O)Nc3ccc(F)cc3[N+](=O)[O-])cc2[N+](=O)[O-])n1`, -0.0883.

For `Cc1ccccc1-c1noc(C23CC4CC(CC(C4)C2)C3)n1`, the z-score is -0.0538.

For the compound `CCCCCCCNC1=CC(=O)CC(c2ccccc2)C1` (stereo not given), the z-score is -0.474. Under `Brc1ccc2[nH]c3nc(SCCN4CCOCC4)nnc3c2c1` stands 0.137. Consider `Cc1[nH]nc2ncc(C(=O)c3ccccc3O)cc12`, for which the z-score amounted to 0.534. Regarding `C=CCn1c(SCC(=O)NCc2ccccc2)nnc1C1CCCCC1`, the z-score is 0.0533. Under `O=C(Oc1ccc(Cl)c2cccnc12)N1CCOCC1` stands -1.2.

`Cc1nc2nc(C)c(CCC(=O)O)c(C)n2n1` showed a z-score of 0.347.

Compound `Cc1ccc(C(=O)CN(C(=O)c2ccc(Cl)c(Cl)c2)N2C(=O)C3C4C=CC(C4)C3C2=O)cc1` (stereo not given) displayed a z-score of 0.233.

`c1nc(N2CCC3(CC2)OCCO3)c2c3c(sc2n1)CCCC3` gave a z-score of -1.04. With `COc1ccc(-n2c(Cn3c(=O)sc4ccccc43)nnc2SCC(N)=O)cc1`, the z-score came out at 0.0744. `CCC(C)[C@H](NC(=O)Nc1ccc(Oc2ccccc2)cc1)C(=O)O` (stereo not given in full) displayed a z-score of -0.551. As for `O=C(Cc1ccc(Br)cc1)N1CCN(c2ccc(F)cc2)CC1`, the z-score was -0.157.

As for `Cc1ccccc1-n1nnnc1SCc1ncc(-c2ccccc2)o1`, the z-score is -0.396. The compound `Cn1c(=O)[nH]c(=O)c2c1nc(N1CCCCCC1)n2CCN1CCCCCC1` showed a z-score of 0.145. Compound `Cc1csc(SCC(=O)Nc2sc3c(c2C#N)CCC3)n1` had a z-score of -0.735. Under `O=C(NCCCCNC(=O)c1ccc(Cl)s1)c1ccc(Cl)s1` stands -0.423; under `O=C(CN1CCN(CC(=O)Nc2ccc(OCc3ccccc3)cc2)CC1)Nc1ccc(F)cc1`, -0.194. Turning to `COCCN1C(=O)c2ccccc2C(C(=O)Nc2ccc3c(c2)OCCO3)C1c1ccc(F)cc1` (stereo not given), the z-score was -0.449. Under `O=C(CN(CC1CCCO1)C(=O)CCC(=O)Nc1nccs1)NCc1ccccc1` (stereo not given) stands 0.199; under `Cc1ccc(C(=O)N/N=C/c2cc(C)n(-c3ccc(Br)cc3)c2C)cc1[N+](=O)[O-]`, -0.519; under `CCOC(=O)C1=NN(c2ccccc2)C(=O)/C1=C\c1ccc(N(C)C)cc1`, -1.66. Under `CCN1/C(=C/c2cc[n+](C)cc2)C=Cc2cc(C)ccc21` stands -0.153; under `CCCCNC(=O)NC1(C(F)(F)F)Oc2ccccc2O1`, -0.407; under `Cc1ccc(CNc2oc(-c3ccco3)nc2C#N)cc1`, -0.32.

Turning to `C=CCN(CC(=O)NCc1ccccc1)C(=O)c1csnn1`, the z-score was -0.525. Under `CCc1ccc(Nc2nnc(SCC(=O)N(C)CC(=O)Nc3ccccc3CC)s2)cc1` stands -0.439. `O=C1CCC(/C=C/c2ccccc2)=NN1Cc1ccc(Cl)c(Cl)c1`: the z-score was active: 13.4.

Compound `Cc1cc(C)cc(OCC(=O)OCC(=O)NCc2ccco2)c1` gave a z-score of -0.631. Under `COc1ccc(NC(=S)NCCN2CCOCC2)c(OC)c1` stands 0.0468; under `Clc1ccc(-c2nnc(CNC3CC3)o2)cc1`, 0.504; under `CCc1c(C)c2c(C)nn(-c3ccccc3)c2oc1=O`, -0.423. Under `COc1ccc(Cn2ccnc2)cc1[N+](=O)[O-]` stands -0.267. Under `COc1ccc(C2CC(=O)C3=C(C2)Nc2ccccc2N(C(=O)C2CC2)C3c2cccnc2)cc1OC` (stereo not given) stands -0.607; under `OCc1ccccc1NC(=S)Nc1cccnc1`, 0.0937. In turn, `CC(C)(C)C(=O)CC1(O)C(=O)N(Cc2ccc(Cl)cc2)c2ccccc21` (stereo not given) showed a z-score of -0.062. Under `O=C(NCc1ccc(F)cc1)c1cnc2n(c1=O)CCS2` stands 2.18. Under `S=C(NCCc1ccccc1)N/N=C/c1c(Cl)cccc1Cl` stands 0.353; under `Cc1occc1C(=O)N1CCN(C(c2ccccc2)c2ccccc2)CC1`, -0.0444; under `CCC(Sc1nc(-c2ccccc2)cc(=O)[nH]1)C(=O)O` (stereo not given), 0.104. The compound `CCOc1ccc(CC(=O)Nc2c(C(=O)Nc3ccccc3)oc3ccccc23)cc1OCC` gave a z-score of -0.0815.

On to `Cc1oc2cc3c(C(=O)N4CCCCC4)c(C)oc3cc2c1C(=O)N1CCCCC1`, for which the z-score stood at 0.496. Under `C=CCSc1nccc(=O)[nH]1` stands -0.329. `CCCC(C)NCC(=O)Nc1ccccc1-c1ccccc1` (stereo not given) displayed a z-score of 0.0667. Take `COc1ccccc1N1CCN(CC(O)COc2ccc3c(C)cc(=O)oc3c2)CC1` (stereo not given): the z-score is -0.382. For `COc1cc2c3c(c1OC)C1(C=CC(=O)C=C1)CC3N(C(=O)c1ccccc1)CC2` (stereo not given), the z-score is -0.202.

Consider `COc1cccc(NC(=O)CSc2nc(N)cc(N)n2)c1`, for which the z-score was active: 3.37. Under `O=C(NN=C1CCN(Cc2ccccc2)CC1)c1ccccc1` stands -0.391; under `Cc1ccc(NC(=O)CSc2n[nH]c(C)c2[N+](=O)[O-])cc1C`, -0.251. Under `CC(C)(C)c1cc(=O)n2c(nc3ccccc32)[nH]1` stands -0.318; under `CCOC(=O)Cc1csc(N/C(=N/S(=O)(=O)c2cc(Br)ccc2OCC)c2ccccc2)n1`, -0.276; under `Cc1ccc(Cn2c(SCCN3CCCCC3)nc3c2c(=O)[nH]c(=O)n3C)cc1`, -0.062. Under `Cc1ccc(C)n1NC(=O)c1cccs1` stands -0.0904; under `Cc1cccc2cc3c(N)c(C(=O)Nc4ccc(N5CCOCC5)cc4)sc3nc12`, -0.216; under `O=[N+]([O-])c1ccc(NCc2ccccn2)nc1`, -0.134. In turn, `CCC(CC)c1nnc(NC(=O)c2c(C)nn(Cc3ccccc3Cl)c2C)s1` registered a z-score of -1.84.

On to `O=C(NCc1ccccn1)c1cc(-c2ccccc2Cl)on1`, for which the z-score worked out at 0.636. Under `CSc1nc2ccc(NC(=O)c3cc4ccccc4o3)cc2s1` stands -0.275; under `CCN(CC)C(=S)SCC(=O)Nc1nc(-c2ccccc2)c(-c2ccccc2)o1`, -0.0668. As to `CC(C)(C)NC(=O)CN(C(=O)CSc1nnc(COc2ccccc2)o1)c1cccc(F)c1`, the z-score is -0.205.

`CNCCOc1nc(N2CCOCC2)nc(C)c1[N+](=O)[O-]`: the z-score is -0.132. Under `CN(C)CCn1c(C(=O)O)cc2ccccc21` stands -0.0606; under `N#CC12CCCCC1CC1CCCCC1(C#N)N2CCO` (stereo not given), 0.34. Under `CCC(=O)Nc1ccc(-c2nnc(SCc3ccc(C(=O)Nc4nccs4)cc3)n2CC)cc1` stands 0.429. Under `CCc1c(C)c2c(C)nn(-c3ccccc3)c2[nH]c1=O` stands -0.132.

Consider `Cc1ccc(NC2CC(=O)N(c3ccc(N4CCCCC4)cc3)C2=O)cc1` (stereo not given), for which the z-score was -0.166. Consider `CCOC(=O)CSc1nc2c(c(=O)n(C)c(=O)n2C)n1Cc1ccccc1F`, for which the z-score is -0.721. Under `CCC(CC)C1=NN2C(=N)/C(=C\c3cc(C)n(-c4cccc(C)c4)c3C)C(=O)N=C2S1` stands 0.818; under `c1cc2c3c(cccc3c1)C(N1CCCCCC1)=N2`, 0.822. Under `Cc1ccc(C)c(OCCCN2CCCC2)c1` stands 0.12; under `Cc1ccc(/C=N/NC(=O)Cn2cnc3ccccc32)o1`, 0.381; under `O=c1onc(-c2cccs2)n1Cc1ccccc1`, -0.199. Under `COc1ccc(-c2ccc(-c3noc(-c4ccccc4)n3)c(OC)n2)cc1` stands -0.311; under `O=C(Nc1cc(C(F)(F)F)ccc1N1CCOCC1)c1cccnc1`, 0.396; under `CCOc1ccc(S(=O)(=O)N(C)c2ccc(OCC(=O)N3CCOCC3)cc2)cc1`, -0.25. As to `Nc1ncnc(N(c2ccccc2)C2CCCCC2)c1[N+](=O)[O-]`, the z-score is -0.0729.

As for `COc1ccc(C(=O)NNC(=O)c2ccncc2)cc1`, the z-score is 1.57. Under `COc1cc(N(C(=O)Cc2cccs2)C(C(=O)NC2CCCCC2)c2ccc(C)cc2)ccc1-n1cnnn1` (stereo not given) stands 0.0695; under `COc1ccc(C(NC(=O)N2CC(C)OC(C)C2)C(Cl)(Cl)Cl)cc1F` (stereo not given), -0.3.

With `O=C(CC(NC(=O)c1ccccc1)c1ccccc1)Nc1cccc2ccccc12` (stereo not given), the z-score is -0.0391. Under `CNc1oc(-c2ccc(C)cc2)nc1P(=O)(c1ccccc1)c1ccccc1` stands -1.27; under `CC(Cc1ccccc1)NC(=O)/C=C/c1ccc([N+](=O)[O-])cc1` (stereo not given), -0.199; under `Cc1ccc(C)c(C(=O)Cn2ncc(Cl)c(Cl)c2=O)c1`, 0.8. Under `CCn1c(CNc2ccc(Cl)cc2)nnc1SCc1ccccc1` stands -0.438; under `CN(C)c1ccc(C(=O)/C=C/c2ccc(Br)cc2)cc1`, 0.0539. For `Cc1ccc(/C=C/C(=O)Nc2sc(C)c(C)c2C(=O)OC(C)C)o1`, the z-score is -0.328. `CC(C)(C)C(=O)NC(=S)NNC(=O)c1sc2ccccc2c1Cl`: the z-score is active: 13.7. Under `CC(C)OP(=O)(OC(C)C)C(O)c1ccc2c(c1)OCO2` (stereo not given) stands -0.272; under `O=C(O)C1C2C=CC(O2)C1C(=O)Nc1ccc(S(=O)(=O)N2CCc3ccccc32)cc1` (stereo not given), -0.0204. `O=c1cc(CO)oc(C(Nc2ccccn2)c2ccc(C(F)(F)F)cc2)c1O` (stereo not given) had a z-score of 0.285. Under `Cc1nn(S(=O)(=O)c2cccs2)c(C)c1Sc1ccc([N+](=O)[O-])cc1` stands -0.00271; under `Cc1c(NC(=O)OCCSc2nc(N(C)C)nc(N(C)C)n2)sc(=S)n1C`, -0.259.
